# The whole screen tested about 320,000 compounds, of which about 200 (0.062%) were called active. Inconclusive means that the source gave no clear call. Such entries were picked first, then a sample of the others. Calls come from the whole dose curve; as a rule, active = well fitted activation curve with a large enough effect; inconclusive = small, poorly fitted or top-dose-only effect; inactive = no such curve, though single readings can be large or run the other way. No potency is given beside an inconclusive call; the fits are too rough.
# Test: qHTS assay for re-activators of p53 using a Luc reporter; note: nearly all actives have a fitted effect of over 45% in size; for activity change, positive = activation: % of control where 0% means no effect
# Conditions: H1299 p53-A138V BP100-luciferase reporter, luminescence, 24 h; series mostly up to 92.2 µM; activity change, positive = activation: at the top concentration
# Outline: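 H1299 (p53-null), stable ts p53-A138V + BP100-Luc; 1000 cells/well, Opti-MEM/10% FBS; cpd 4 pt, 1:5; 24 h, 37 deg C, 5% CO2; detection reagent 10 min RT; luminescence.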
# Potency is the fitted concentration of half-maximal effect; tags give direction and shape of the fitted curve.
Compound,Potency,"activity change, positive = activation"
Nc1c(C(=O)NCc2ccco2)sc2nc3c(cc12)C(=O)CCC3,"inconclusive [activator, partial curve, poor fit]",–
COC(=O)c1ccc(N=NNc2ccccc2)cc1,"inconclusive [activator, full curve, poor fit]",–
CCCCOc1ccc(-c2cn3ccccc3n2)cc1[N+](=O)[O-],"inconclusive [activator, partial curve, poor fit]",–
COc1cccc(NC(=O)CNC(=O)c2ccccc2)c1,"inconclusive [activator, partial curve, poor fit]",–
CCn1c(N2CCN(C(=S)NCC(C)C)CC2)nc2ccccc21,–,inactive: -5.15%
COC(=O)c1cccc(CSc2nc3ccccc3[nH]2)c1,"inconclusive [activator, partial curve, poor fit]",–
c1ccc(COc2ccc(OCCCn3cncn3)cc2)cc1,"inconclusive [activator, partial curve, poor fit]",–
Cc1cc(C)nc(Nc2ccc(Br)cc2C(=O)O)n1,–,inactive: 0.726%
NC(=O)c1ccccc1N/C=C/C(=O)c1ccco1,"inconclusive [activator, full curve, poor fit]",–
CCOC(=O)c1c(N)ssc1=S,"inconclusive [activator, full curve, poor fit]",–
S=C(NCc1ccc(Cl)cc1)NC12CC3CC(CC(C3)C1)C2,"inconclusive [activator, single point]",–
COc1ccc([C@@H](C)NC(=O)c2ccc3oc(C(C)C)nc3c2)cc1,"inconclusive [activator, partial curve, poor fit]",–
O=C(NC(=S)Nc1nc(-c2ccc([N+](=O)[O-])cc2)cs1)c1ccco1,"inconclusive [activator, partial curve, poor fit]",–
CCOc1ccc(-c2nc(-c3ccccc3)no2)cc1OCC,"inconclusive [activator, partial curve, poor fit]",–
Cc1nnc(-c2ccccc2)o1,–,inactive: 0.724%
O=[N+]([O-])c1ccc(O)c(C=Nc2ccc3c(c2)OCCO3)c1,"inconclusive [activator, partial curve, poor fit]",–
COC(=O)c1c(-c2ccccc2)csc1NC(=O)c1c(-c2ccccc2)noc1C,"inconclusive [activator, single point]",–
CN=Cc1sc2ccccc2c1O,"inconclusive [activator, single point]",–
N#C/C(=C/c1ccccc1[N+](=O)[O-])c1nc(C2CC2)cs1,"inconclusive [activator, full curve, poor fit]",–
O=C1CCCN1CC(O)CS(=O)(=O)Cc1ccc(Cl)c(Cl)c1 (centres undefined),–,inactive: -1.54%
CCOC(=O)C1(Cc2ccccc2)CCCN(C(=O)c2cnn(CC)c2)C1 (centres undefined),"inconclusive [activator, partial curve, poor fit]",–
CC(C)NC(=O)c1ccc(-c2ccccc2C(F)(F)F)o1,–,inactive: 20.6%

Compound,Potency,"activity change, positive = activation"
C=CCn1c(O)c(N=NC(=S)Nc2ccc(OC)c(Cl)c2)c2ccccc21,–,inactive: -7.01%
Cc1cc(C)n(-c2nc(Nc3ccccc3C(F)(F)F)nc(-n3nc(C)cc3C)n2)n1,–,inactive: 6.79%
COc1ccc(OCc2ccc(C(=O)N3CCOCC3)cc2)cc1,"inconclusive [activator, partial curve, poor fit]",–
O=C(CSC(=S)N1CCCC1)Nc1cc2c(cc1Br)OCCO2,–,inactive: 11.3%
CCCN(CC(=O)Nc1ccccc1C)C(=O)CCCc1c[nH]c2ccccc12,"inconclusive [activator, full curve, poor fit]",–
O=C(CN1C(=O)CCC1=O)Nc1nc(-c2ccc(Oc3ccccc3)cc2)cs1,"inconclusive [activator, single point]",–
COc1c(O)cc2oc(-c3ccc(O)c(O)c3)cc(=O)c2c1O,"inconclusive [activator, partial curve, poor fit]",–
COc1cccc(-c2csc(NC(=O)Oc3ccccc3)n2)c1,"inconclusive [activator, full curve, poor fit]",–
Brc1ccc(-c2ncc3ccccn23)cc1,"inconclusive [activator, full curve, poor fit]",–
CCOC(=O)CSc1nc2ccccc2c(=O)n1NC(=O)c1ccccc1,–,inactive: 44.4%
Cn1nccc1C(=O)OCC(=O)Nc1nc(-c2ccccc2)cs1,"inconclusive [activator, partial curve, poor fit]",–
Cc1ccc(N2CCN(C(=O)c3nn(C)c4c3CS(=O)(=O)c3ccccc3-4)CC2)c(C)c1,–,inactive: -3.52%
CCCCc1ccc(Nc2ncccc2C#N)cc1,"inconclusive [activator, partial curve, poor fit]",–
CCN(CC)S(=O)(=O)c1cccc(C(=O)Nc2cccc(C)c2)c1,"inconclusive [activator, full curve, poor fit]",–
COc1cc(CN2CCCCC2C(=O)Nc2ccc(Oc3ccccc3)nc2)ccc1O (centres undefined),"inconclusive [activator, partial curve, poor fit]",–
C=CCn1c(SCC(=O)Nc2ccc(-c3nc4ccc(C)cc4s3)cc2)nnc1-c1ccccc1,"inconclusive [activator, full curve, poor fit]",–
O=C(CCc1ccccc1)Nc1ccc(Cl)cn1,"inconclusive [activator, partial curve, poor fit]",–
COc1cccc(NC2=C(Cl)C(=O)OC2OC(=O)c2ccco2)c1 (centres undefined),"inconclusive [activator, single point]",–
COc1ccc(-c2c(C#N)c(SCC(=O)c3cc4ccccc4oc3=O)nc(C)c2C(=O)Nc2ccccc2)cc1,"inconclusive [activator, partial curve, poor fit]",–
Cc1ccc(CN(C(=O)c2ccc(Cl)c([N+](=O)[O-])c2)C2CCS(=O)(=O)C2)o1 (centres undefined),"inconclusive [activator, single point]",–
COCCSc1nnc(NC(=O)c2ccco2)s1,"inconclusive [activator, partial curve, poor fit]",–
O=C(COC(=O)c1cccnc1Cl)Nc1nc(-c2ccccc2)cs1,"inconclusive [activator, full curve, poor fit]",–

Compound,Potency,"activity change, positive = activation"
COc1ccc2cc(-c3nc4ccccc4n3C)c(=O)oc2c1,"inconclusive [activator, partial curve, poor fit]",–
CCNC(=S)NNC(=O)c1cc(-c2cccc(OCC)c2)nc2ccccc12,–,inactive: 28.8%
CCC(C)(C)n1nnnc1C(C(C)C)N(CCCO)Cc1cc2cc(C)ccc2[nH]c1=O (centres undefined),"inconclusive [activator, single point]",–
Cc1ccccc1Cn1ccc(NC(=O)CCSc2nc(-c3ccco3)cc(C(F)(F)F)n2)n1,–,inactive: 2.24%
COc1cccc(NC(=O)NC2(C(F)(F)F)Oc3ccccc3O2)c1,"inconclusive [activator, partial curve, poor fit]",–
CCOC(=O)c1ccc(CSc2nnc(N)s2)cc1,"inconclusive [activator, full curve, poor fit]",–
CC1CN(C(=O)/C=C/c2ccc([N+](=O)[O-])s2)CC(C)O1 (centres undefined),"inconclusive [activator, partial curve, poor fit]",–
Cc1c(C(=O)N/N=C/c2ccc(O)c(Br)c2)sc(N)c1C#N,"inconclusive [activator, partial curve, poor fit]",–
COc1ccc(-c2csc(Nc3ncccc3C)n2)cc1OC,"inconclusive [activator, full curve, poor fit]",–
CC1(C)C2C/C(=N\O)C(C)(/[N+]([O-])=C/c3cccc([N+](=O)[O-])c3)CC21 (centres undefined),–,inactive: 5.55%
Cc1ccc(-n2nnnc2SCC(=O)NCC2(N3CCCCC3)CCCCC2)c(C)c1,"inconclusive [activator, single point]",–
Cc1ccc(C#N)c(SCc2nnc(-c3ccc(Cl)cc3)o2)n1,"inconclusive [activator, partial curve, poor fit]",–
CCn1c(SCC(=O)Nc2ccc(C(=O)OC)cc2)nnc1-c1cccs1,"inconclusive [activator, full curve, poor fit]",–
Cc1cccc(NS(=O)(=O)c2cc(Cl)ccc2Cl)n1,"inconclusive [activator, single point]",–
Cc1cc(NC(=O)/C=C/c2ccc(Br)cc2)no1,"inconclusive [activator, partial curve, poor fit]",–
COc1cc(/C=C2\C(=O)N(CCC#N)N=C2C)ccc1OCC(=O)Nc1ccccc1,"inconclusive [activator, partial curve, poor fit]",–
O=C(Nc1ccccc1C(=O)O)c1cccc(NC(=O)c2ccco2)c1,"inconclusive [activator, partial curve, poor fit]",–
C=CCNc1nc2c(c(=O)n(C)c(=O)n2C)n1Cc1ccc(F)cc1,–,inactive: -11.5%
Cc1ccc(C(=O)Nc2ccc3c(c2)OCO3)o1,"inconclusive [activator, full curve, poor fit]",–
CC(=O)c1c(C)[nH]c(C(=O)Nc2ccc3c(c2)OCCO3)c1C,"inconclusive [activator, partial curve, poor fit]",–
